Results published in the supplement of paper PMC12217912.
The other results are listed elsewhere or left out. The full chains were built here from the parent and the listed change. Inactive controls read about 0.05.

B1: TEV protease; numbered along this chain (parent)
chain: MGESLFKGPRDYNPISSSICHLTNESDGHTTSLYGIGFGPFIITNKHLFRRNNGTLVVQSLHGVFKVKDTTTLQQHLVDGRDMIIIRMPKDFPPFPQKLKFREPQREERICLVTTNFQTKSMSSMVSDTSCTFPSGDGIFWKHWIQTKDGQCGSPLVSTRDGFIVGIHSASNFTNTNNYFTSVPKNFMELLTNQEAQQWVSGWRLNADSVLWGGHKVFMVKPEEPFQPVKEATQL

Variants of: B1
Assay: raw area under fraction-flipped curve 0-4 h after induction (AUC4h, not background-subtracted), DNA-recorder readout of cleavage of the substrate (dimensionless); higher = more cleavage of the substrate by the protease variant
Conditions: temperature: 34 °C; time window: 0-4 h after rhamnose induction
Procedure: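 In vivo DNA recorder in E. coli TOP10(DE3) ΔrhaA at 34 °C. Each TEVp single-site mutant (parent TEVp 0) is paired with a single-site variant of the 7-mer TEVs (canonical ENLYFQ|S). The substrate sits between flexible linkers in a Bxb1-sfGFP-TEVs-SsrA fusion, so cleavage stabilises Bxb1 and speeds flipping of a recombination array, read by NGS. The value is the raw area under the fraction-flipped curve over 0-4 h after rhamnose induction (AUC4h), with ≥20 reads per time point. It is not background-subtracted; inactive controls average about 0.047.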
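Note: Bxb1 expression induced with 0.2% (w/v) L-rhamnose at OD600 near 0.5, cultures sampled hourly, flipped fraction per protease–substrate barcode pair counted by paired-end Illumina sequencing.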

Row | Variant | area with substrate ENAYFQS | area with substrate ENCYFQS | area with substrate ENDYFQS | area with substrate ENEYFQS | area with substrate ENFYFQS | area with substrate ENHYFQS | area with substrate ENIYFQS | area with substrate ENKYFQS | area with substrate ENMYFQS | area with substrate ENPYFQS | area with substrate ENQYFQS | area with substrate ENRYFQS | area with substrate ENSYFQS | area with substrate ENTYFQS | area with substrate ENVYFQS | area with substrate ENWYFQS | area with substrate ENYYFQS | area with substrate ENGYFQS | area with substrate ENNYFQS
1 | S130L | 0.0612 | 0.0543 | 0.065 | 0.0597 | 0.0671 | 0.0683 | 0.0951 | 0.0456 | 0.0739 | 0.0561 | 0.0326 | 0.044 | 0.0509 | 0.0448 | 0.0675 | 0.0615 | 0.0516 | – | –
2 | P96G | 0.0561 | – | – | – | – | – | – | – | – | 0.068 | – | 0.0743 | 0.0726 | 0.0558 | 0.0772 | – | – | 0.0711 | –
3 | T114C | 0.0795 | 0.0684 | 0.0424 | 0.0625 | – | 0.0523 | – | – | 0.0852 | – | 0.0688 | – | – | – | 0.0781 | – | – | 0.0697 | –
4 | Q105H | 0.0547 | 0.0634 | 0.0603 | 0.0618 | – | – | 0.145 | 0.0735 | – | 0.0376 | 0.0654 | 0.052 | 0.0576 | 0.0596 | – | – | 0.0574 | 0.0802 | 0.0664
5 | R109F | 0.0572 | 0.0665 | 0.0654 | 0.0456 | 0.0526 | 0.0743 | – | 0.059 | 0.0796 | – | 0.0578 | 0.0438 | 0.0631 | 0.0577 | 0.0613 | – | – | 0.0684 | –
6 | F140D | 0.0587 | 0.0634 | 0.0679 | 0.0625 | – | 0.0626 | – | – | 0.0573 | – | – | – | 0.0668 | 0.0645 | 0.0586 | 0.0458 | – | – | 0.0563
7 | F140H | 0.0667 | – | – | – | – | – | – | – | 0.0696 | – | – | – | 0.0185 | – | – | – | – | 0.0567 | 0.0604
8 | S127F | 0.064 | 0.0631 | 0.0807 | 0.0516 | 0.055 | 0.0563 | 0.124 | – | 0.11 | – | 0.0643 | – | 0.06 | 0.061 | – | 0.0618 | – | 0.0531 | 0.0619
9 | S127V | 0.0674 | 0.072 | 0.0644 | 0.059 | 0.0639 | 0.0555 | 0.103 | – | – | 0.0372 | 0.0574 | – | 0.0501 | – | 0.115 | – | 0.0473 | 0.0595 | –
10 | D137E | 0.0355 | 0.0806 | 0.0421 | 0.0691 | 0.0494 | – | – | – | – | 0.0571 | 0.0558 | – | 0.0667 | 0.0715 | 0.0639 | 0.0645 | 0.066 | – | 0.0595
11 | R102K | 0.0504 | 0.081 | 0.0575 | 0.0628 | 0.119 | – | 0.115 | 0.052 | – | – | 0.0587 | – | 0.0526 | – | 0.0898 | – | – | – | 0.0496
12 | S121C | 0.0534 | 0.0594 | – | 0.079 | – | 0.0565 | 0.113 | – | – | – | – | – | 0.135 | 0.0631 | 0.0812 | – | – | 0.0649 | –
13 | S121R | 0.0643 | 0.0555 | 0.0622 | 0.0706 | 0.0497 | 0.0582 | – | 0.0635 | 0.0709 | 0.0625 | 0.0628 | 0.0561 | 0.0591 | 0.0462 | 0.0866 | 0.0472 | 0.06 | 0.0615 | 0.0659
14 | P104Q | 0.0475 | 0.0582 | – | – | – | – | – | 0.0613 | – | – | – | 0.0538 | 0.0606 | 0.0416 | 0.0548 | – | 0.0445 | – | 0.0506
15 | P104E | 0.0507 | 0.0953 | – | 0.0528 | – | 0.0487 | – | – | 0.0487 | 0.0435 | 0.05 | 0.0552 | 0.0579 | – | 0.0512 | – | – | 0.0523 | 0.0532
16 | R106L | 0.075 | – | 0.0549 | – | – | – | 0.0932 | – | 0.0725 | 0.067 | 0.0572 | – | 0.0455 | – | 0.0769 | – | – | – | 0.0843
17 | S135Q | 0.0603 | 0.0569 | 0.054 | 0.0556 | 0.0576 | 0.0634 | 0.0637 | – | 0.0562 | 0.0616 | 0.0404 | – | 0.0663 | – | – | – | 0.0438 | 0.0623 | 0.0624
18 | W141T | 0.053 | – | – | 0.0534 | – | 0.0449 | 0.0568 | – | – | – | 0.0549 | 0.048 | – | – | – | – | – | 0.0638 | 0.0598
19 | G136S | 0.0856 | 0.0727 | 0.0795 | 0.0414 | – | 0.0645 | – | 0.061 | – | 0.0381 | – | 0.0573 | 0.0496 | 0.0559 | – | – | – | – | 0.06
20 | V126S | 0.0573 | 0.0521 | 0.0659 | – | 0.0684 | 0.0549 | – | 0.0704 | 0.0827 | – | 0.0669 | – | 0.0675 | 0.0726 | 0.0887 | 0.0617 | 0.0658 | 0.0591 | 0.069
21 | T119P | 0.0476 | 0.0714 | 0.0307 | – | – | – | – | – | 0.0998 | – | 0.0514 | – | 0.0804 | 0.0639 | 0.0893 | 0.0473 | – | – | –
22 | F133T | 0.0515 | 0.0689 | 0.066 | 0.0617 | – | – | – | – | – | – | 0.0779 | – | 0.0675 | – | 0.0831 | 0.0483 | – | – | 0.0666
23 | L112P | 0.0566 | 0.0519 | 0.0555 | 0.0592 | 0.0509 | 0.0405 | – | – | 0.0607 | 0.0505 | 0.0494 | – | 0.0562 | 0.0599 | 0.089 | 0.054 | 0.0508 | 0.0576 | 0.0567
24 | F101T | 0.0576 | 0.0975 | 0.0677 | 0.0568 | 0.0428 | 0.0578 | 0.0432 | 0.0514 | 0.0645 | – | 0.0647 | 0.0497 | 0.0666 | – | 0.0617 | – | – | 0.038 | –
25 | T132P | 0.0487 | 0.0773 | – | 0.0571 | 0.044 | – | 0.0702 | – | – | – | 0.0665 | 0.0572 | – | – | 0.0508 | 0.0392 | – | 0.048 | 0.0598
26 | T132L | 0.0702 | 0.0622 | 0.0612 | 0.0629 | – | 0.058 | – | – | 0.0837 | 0.0399 | 0.0658 | 0.0686 | 0.0684 | 0.0788 | – | – | 0.0528 | 0.0522 | 0.0468
27 | T132W | 0.0607 | – | 0.0565 | 0.0605 | 0.059 | 0.0794 | – | – | – | – | – | 0.0477 | 0.0516 | 0.0503 | 0.0493 | 0.0542 | 0.0561 | 0.0378 | 0.0617
28 | F117W | 0.0612 | – | 0.058 | 0.0559 | – | – | – | – | – | – | 0.0611 | 0.053 | – | – | 0.116 | – | 0.059 | – | 0.0626
29 | K98Y | 0.0506 | 0.0523 | 0.0518 | 0.0521 | 0.0537 | 0.0612 | – | 0.064 | – | 0.0537 | 0.059 | 0.0495 | 0.0682 | 0.0698 | 0.0674 | – | – | 0.056 | 0.0678
